Measurements published in patent US20260274921A1 (published 2026).

Target: His-tagged CD47 extracellular domain (ECD) protein (Abclonal, CAT #RP01306) (human, UniProt Q08722 part only)
Experiment: ELISA; pH 6.0

Sequence of UniProt Q08722 (Q08722 19-139): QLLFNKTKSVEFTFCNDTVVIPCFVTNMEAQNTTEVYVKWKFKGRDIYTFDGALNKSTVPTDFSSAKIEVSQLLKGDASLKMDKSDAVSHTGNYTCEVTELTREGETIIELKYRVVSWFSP

- EC50: 2.28 nM
B1: SIN-310, SIRPαV1 K53H IgV-IgG1 Fc (Fc fusion)
chain: EEELQVIQPDKSVLVAAGETATLRCTATSLIPVGPIQWFRGAGPGRELIYNQHEGHFPRVTTVSDLTKRNNMDFSIRIGNITPADAGTYYCVKFRKGSPDDVEFKSGAGTELSVRAKPS[human IgG1 Fc not printed]
